Assay results taken from ChEMBL document CHEMBL4888484, “Replenishing the malaria drug discovery pipeline: Screening and hit evaluation of the MMV Hit Generation Library 1 (HGL1) against asexual blood stage Plasmodium falciparum ,using a nano luciferase reporter read-out” (2022).
The campaign covered roughly 150,000 compounds. About 540 (0.36%) showed an effect of 50% or more. Some of the results follow.

The compounds below were run on Plasmodium falciparum (assay: Primary screen in NF54 nanoGlo assay, in single point, at 2uM, 72h; a lower Z score goes with more inhibition). Details: timepoint 72 hour.
Assay type: functional, Erythrocyte

SMILES	% Inhibition [%]	Z score
CNc1nc(-c2ccccc2)nnc1C(F)(F)F	35	-4.55
COC(=O)c1c(-c2cccc(Cl)c2)noc1Nc1cc(C)ccc1C	-8	1.46
CC(C)c1nc(CN(C)Cc2nnc3ccccn23)cs1	-6	1.07
COC[C@H]1CCCN(CC(=O)Nc2cccnn2)CC1	-3	0.48
O=C(NC1CCS(=O)(=O)CC1)c1nc2cc(Cl)ccc2s1	-6	1.25
Cc1cc(NC(=O)c2n[nH]c3ccccc23)n(Cc2ccccn2)n1	-16	1.59
CCn1c(C)nnc1CN[C@H](c1ccccc1Cl)C(C)C	-8	1.46
O=C(NCCN1CCCCC1)c1ccc(-c2ccc3[nH]c(CO)nc3c2)cc1	10	-1.24
O=C1CCCc2c1cnc1c2c(O)nc(=O)n1CCc1ccccc1	10	-1.19
Cc1cccc(-c2noc(CCC(=O)N3CC[C@H](CCOc4ccccc4)C3)n2)c1	-3	0.44
Cc1cc(NC(=O)Cc2nc(C)c(C(=O)NCc3ccccc3)s2)ccc1F	23	-2.89
O=C(C[C@H]1CCCO1)Nc1ccc2oc(-c3cc(F)ccc3Br)nc2c1	-5	0.68
CNC(=O)c1cccc(NC(=O)Nc2cccc3ccn(C)c23)n1	15	-1.69
COc1cccc(CNc2ccc(CS(C)(=O)=O)c(Cl)c2)n1	-30	3.55
Cc1nccn1CC(=O)N1CCN([C@@H](C)c2nccs2)CC1	-14	2.73
CCc1nnc(CN2CCC(C(=O)NCc3ccccc3)CC2)o1	0	-0.03
CCc1cc(C(=O)NCc2cccnc2)cs1	-20	1.83
CC(=O)NCc1csc([C@H]2CCCN(S(=O)(=O)c3ccccc3Cl)C2)n1	-5	0.57
C#CCN(C(=O)C[C@H]1C(=O)NCCN1C1Cc2ccccc2C1)C1CCCCC1	-12	1.75
CC1=NO[C@H](C(=O)NCc2ccc(N3CCCC3=O)cc2)C1	17	-2.21
CCOc1ccc(S(=O)(=O)N(C)C)cc1NC(=O)CCC(C)C	-10	1.52
Cc1ccc(C(=O)N2CCN=C2N2CCN(c3cccc(Cl)c3)CC2)cc1	-10	1.66
CN(CCC(=O)NC(N)=O)[C@H](c1ccc(Cl)cc1)C(F)(F)F	-4	0.75
CCC(CC)(CO)CN(C)C(=O)CC1CC(C)(C)NC(C)(C)C1	2	-0.32
COc1ccc2c(=O)c(C(=O)NCCN3CCOCC3)c[nH]c2c1	0	0.04
Cc1ccnc(-n2cc(S(=O)(=O)Nc3onc(C)c3C)cn2)c1	-17	1.48
CS(=O)(=O)NC[C@H]1CCCN(c2nnc(-c3ccccc3)s2)C1	10	-1.59
COc1ccc(NC(=O)Nc2nn(C)cc2-c2ccccc2)cc1	-15	1.89

SMILES	% Inhibition [%]	Z score
CC(C)c1cc(C(=O)N2CCC(n3cc(-c4ccccn4)nn3)CC2)[nH]n1	-8	1.22
C=CCN1CC[C@H](N(C)c2nc(C)cc(C)n2)C1=O	20	-2.36
CC(C)CN(CCN(C)C)C(=O)c1[nH]ncc1Br	-5	0.6
Cc1cccc(C(=O)N(C)Cc2ccsc2)n1	-2	0.32
CCC(C)n1ncc(C(=O)N2CCN(C(C)C(N)=O)CC2)c1C1CC1 (stereo not given)	-8	1.08
COC[C@@H](N)C(=O)N1CCC2(CC1)CC(=O)N(Cc1ccc(Cl)cc1)C2	-8	1.44
CCOC(=O)[C@]12CCCN[C@@H]1CCN(C(=O)c1ccc3c(c1)CCO3)C2	-14	2.63
C[C@@]1(C(=O)NC2CCCCC2)Oc2cccnc2NC1=O	-8	1.4
CN(C)Cn1c(=S)oc2cc(S(=O)(=O)Nc3ccccc3Cl)ccc21	-13	1.62
Cc1cc(-c2cc(O)n(-c3ccccc3)n2)n(C)n1	-39	4.56
COc1cc(C)ccc1OCc1cncc(-c2ccc(F)c(F)c2)c1	2	-0.3
O=S(=O)(NCc1nc(-c2cc(C3CC3)on2)no1)N1CCOCC1	-11	1.37
O=C(C1CC2CCC1C2)N1CCN(Cc2nnc3n2CCCCC3)CC1 (stereo not given)	10	-1.32
Cc1cccc(CN2CCN(C(=O)NCC3(C)COC3)[C@@H](C)C2=O)c1	-7	1.38
CCOC(=O)CCN(CC1CC1)CN1C(=O)c2cc(Cl)c(Cl)cc2C1=O	5	-0.51
CCc1ccc(C(=O)N2CCN(CC3CCC3)C[C@H](O)C2)[nH]1	-12	1.33
Cc1noc(-c2c(NC(=O)CCc3c(C)noc3C)sc3c2CCOC3)n1	-17	2.61
Cc1cnc(C(=O)N(C)Cc2occc2C)o1	-1	0.08
O=C(NCc1nnc2n1CCOCC2)Nc1nsc2ccccc12	-15	2.5
Cc1ccccc1NC(=O)N1CCN(Cc2nc3ccc(Cl)cc3o2)CC1	-5	0.77
CCCCNC(=O)Nc1ccc(OC(C)C)nn1	-13	2.1
Cc1ccc(CS(=O)(=O)c2nnc([C@H](Cc3ccccc3)NC(=O)OC(C)(C)C)o2)cc1	1	-0.06
O=C1CC[C@H](C(=O)N2CCOc3ccc(Br)cc3C2)N1	-1	0.19
O=C(NCc1c[nH]nn1)[C@@H]1CCCN1c1ncnc2ccccc12	-3	0.26
CC[C@@]1(C)Cc2ccccc2-c2[nH]c(=O)n(-c3ccc(F)cc3)c(=O)c21	-12	1.93
CC1CCCC(OCC(=O)NCCc2nnc[nH]2)C1 (stereo not given)	-13	2.18
O=C(Nc1ccccc1)c1csc(-c2ccc(OCc3ccccc3)cc2)n1	4	-0.43
